Data published in PubChem BioAssay AID1745853 (National Center for Advancing Translational Sciences (NCATS), 2022).
This is one part of the list. Further columns of the screen follow, without active or inactive calls.

Experiments:
Experiment in all cases: Primary Screen for Target Class Profiling of Small Molecule Inhibitors of Methyltransferases
[1] = biological target: Glycine N-methyltransferase (Homo sapiens) (UniProt Q14749); conditions: purified enzyme, MTase-Glo SAH luminescence; measured here: GNMT inhibition; at 40 µM; stronger effect = lower value
Summary of the method: (§1)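 Each enzyme was assayed with SAM and its substrate. SAH formation detected by MTase-Glo luminescence; single-point 40 uM screen[…].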

[2] = biological target: Guanidinoacetate N-methyltransferase (Homo sapiens) (UniProt Q14353); conditions: purified enzyme, MTase-Glo SAH luminescence; measured here: GAMT inhibition; at 40 µM; stronger effect = lower value
Summary of the method: as §1

[3] = biological target: Histamine N-methyltransferase (Homo sapiens) (UniProt P50135); conditions: purified enzyme, MTase-Glo SAH luminescence; measured here: HNMT inhibition; at 40 µM; stronger effect = lower value
Summary of the method: as §1

[4] = biological target: Nicotinamide N-methyltransferase (Homo sapiens) (UniProt P40261); conditions: purified enzyme, MTase-Glo SAH luminescence; measured here: NNMT inhibition; at 40 µM; stronger effect = lower value
Summary of the method: as §1

[5] = biological target: Phenylethanolamine N-methyltransferase (Homo sapiens) (UniProt P11086); conditions: purified enzyme, MTase-Glo SAH luminescence; measured here: PNMT inhibition; at 40 µM; stronger effect = lower value
Summary of the method: as §1
% is set by controls: 0 for no effect and ±100 for the full control effect.

| SMILES | activity change, negative = inhibition [1] | activity change, negative = inhibition [2] | activity change, negative = inhibition [3] | activity change, negative = inhibition [4] | activity change, negative = inhibition [5] |
| --- | --- | --- | --- | --- | --- |
| CCOC(=O)c1cc2n(n1)CC(C)(C(=O)NC1CCC(C)CC1)N(Cc1cccc(OC)c1)C2=O (stereo not given) | 1.7% | 0.759% | 4.09% | -18.3% | 0.336% |
| CCC(C)NC(=O)c1ccc2c(=O)n(C)c3nnc(SCc4ccc(N5CCCC5=O)cc4)n3c2c1 (stereo not given) | 3.96% | 7.44% | 7.3% | 3.07% | 1.08% |
| CC(C)NC(=O)COc1cccc(-c2nc(Nc3ccc4[nH]ncc4c3)c3ccccc3n2)c1 | -3.11% | 18.6% | 4.88% | 2.88% | 3.91% |
| CC1CCCCC1NC(=O)C1(C)Cn2c(cc3sccc32)C(=O)N1CCc1ccccc1 (stereo not given) | -0.088% | 7.64% | -0.296% | 2.01% | -3.52% |
| N[C@@H](CC(=O)O)C(=O)O | -5.76% | 6.4% | 0.387% | -5.67% | 5.01% |
| c1ccc2cc(-c3nc(C4CCOC4)no3)ncc2c1 (stereo not given) | -3.46% | 2.26% | -0.985% | -8.63% | 11.1% |
| NC(=O)NCc1cn(C2CCN(C(=O)C3CCCCCC3)CC2)nn1 | -0.923% | 1.8% | 1.07% | 1.69% | 1.03% |
| Cc1ccc(C2c3cccn3-c3sc4c(c3CN2C(=O)Nc2ccccc2)CCCC4)cc1 (stereo not given) | -5.67% | -5.98% | 1.93% | -9.85% | 0.721% |
| CN1C(=O)c2cc(C(=O)NCc3cccnc3)nn2CC1(C)C(=O)NC1CCCC1 (stereo not given) | 11% | 2.15% | 7.89% | 0.017% | 5.63% |
| COc1ccccc1NC(=O)Cn1nc2n(CC(C)C)c(=O)c3ccccc3n2c1=O | -0.975% | 0% | 5.74% | -3.29% | 0.826% |
| CCCC1c2ccc(C)n2CCN1C(=O)Nc1cccc2c1CCCC2 (stereo not given) | -2.25% | 4.96% | -6.23% | 0.401% | -4.32% |
| COc1ccc(NS(=O)(=O)c2cc3c(cc2Cl)n(C)c(=O)n3C)cc1 | -6.41% | -0.291% | -4.41% | -0.472% | -4.02% |
| O=C(Nc1ccc([C@@H](O)[C@H]2COCC(=O)N2Cc2ccccc2F)cc1)c1ccc2c(c1)OCO2 | -4.87% | 1.34% | -0.799% | -1.53% | -12.3% |
| Fc1ccccc1Nc1ccnc(N2CC3CCC(C2)N3CC(F)(F)F)n1 | -4.63% | -1.84% | -0.429% | -12.6% | -1.78% |
| CCN(C(=O)Cn1c(=O)oc2cc(S(=O)(=O)N3CCCCC3)ccc21)c1ccccc1 | -2.4% | 3.15% | -0.135% | 1.46% | -3.26% |
| c1ccc(CN(Cc2ccoc2)[C@@H]2C[C@@H]3CO[C@H](c4ccccc4)C[C@@H]3C2)cc1 | -2.7% | 0.444% | 1.51% | -7.31% | -4.09% |
| C/C=C(\C)C(=O)OC[C@H]1O[C@@H](O[C@H]2[C@@H](O[C@H]3O[C@H](CO)[C@@H](O)[C@H](O)[C@H]3O[C@@H]3O[C@H](CO)[C@@H](O)[C@H](O)[C@H]3O)O[C@H](COC(=O)/C(C)=C/C)[C@@H](O)[C@@H]2O)[C@H](O)[C@@H](O)[C@@H]1O | 1.52% | 2.38% | 5.48% | -6.89% | 2.37% |
| CC(=O)N1CCc2nn(CC(=O)N3CCN(c4ccccc4)CC3)c(=O)cc2C1 | -9.13% | -11.8% | -5.67% | -17.9% | -27.6% |
| CCCn1c(=O)c2ccc(C(=O)NC(C)C)cc2n2c(SCC(=O)NC(C)C)nnc12 | 1.24% | 0% | 4.79% | 1.61% | 3.04% |
| C[C@H]1C(=O)N2c3ccccc3[C@@]3(O)C[C@@H]4C(=O)N[C@](C)(c5nc6ccccc6c(=O)n54)N1[C@@H]23 | -6.61% | -0.506% | 8.46% | -23.7% | -10.6% |

| SMILES | activity change, negative = inhibition [1] | activity change, negative = inhibition [2] | activity change, negative = inhibition [3] | activity change, negative = inhibition [4] | activity change, negative = inhibition [5] |
| --- | --- | --- | --- | --- | --- |
| O=S(=O)(c1cc(F)ccc1F)N1CCCC1c1nncn1Cc1ccncc1 (stereo not given) | -4.61% | -2.83% | -1.56% | -6.93% | -5.28% |
| COc1ccc(CCC(=O)c2c(O)cc(O)cc2O[C@@H]2O[C@H](CO)[C@@H](O)[C@H](O)[C@H]2O)cc1 | -3.73% | -4.22% | 2.81% | -14% | -9.85% |
| O=C(CCCc1ccc(F)cc1)N[C@@H]1CCOC[C@H]1Oc1ccccn1 | 0.341% | -0.325% | -0.268% | 1.95% | -0.907% |
| CCOC(=O)C(Cc1c[nH]c2ccccc12)NC(=O)c1ccc(Br)cc1 (stereo not given) | -6.46% | 2.53% | -3.85% | -9.34% | -4.07% |
| Cc1ccc(NC(=O)CN(C)S(=O)(=O)c2ccc3[nH]c4c(c3c2)CCCC4)c(C)c1 | -2.28% | 4.45% | 0.8% | -2.13% | -1.12% |
| CS(=O)(=O)c1ccc([C@@H](O)[C@@H](CF)NC(=O)C(Cl)Cl)cc1 | 2.87% | 4.54% | 7.61% | -9.25% | 2.53% |
| Cc1occc1-c1nc2ncccc2[nH]1 | -10.9% | -9.47% | -5.61% | -8.9% | -9.22% |
| CC1(C(=O)NCc2ccccc2)Cn2c(nc3ccccc32)C(=O)N1CCc1ccco1 (stereo not given) | -5.7% | 4.63% | -1.51% | -2.54% | -1.21% |
| Cn1nc(NC(=O)C2CCS(=O)(=O)C2)c2c(Oc3cccnc3)cccc21 (stereo not given) | 0.376% | -0.508% | 1.55% | 1.5% | 0.284% |
| Cn1c(=O)c2ccc(C(=O)NC3CCCC3)cc2n2c(=O)n(Cc3ccccc3)nc12 | -6.27% | -6.13% | 2.03% | -7.24% | -4.06% |
| C=C(C(=O)OC)[C@]12O[C@@](C)(CC[C@@]3(O)/C(=C\C)C(=O)O[C@]3(C)C[C@@H]1OC(=O)C(CO)CN1CCCC1C(=O)O)CC2=O (stereo not given in full) | -2% | -18.4% | 2.99% | -29% | -2.5% |
| CCN(CC)CCCNC(=O)CCc1nnc2n(Cc3ccc(Cl)cc3)c(=O)c3ccccc3n12 | -5.79% | 0% | -59.1% | 5.31% | 2.2% |
| COc1ccc(C(=O)Cn2nc3n(Cc4ccccc4)c(=O)c4ccccc4n3c2=O)cc1 | 0.855% | 0.985% | 5.86% | -1.27% | -1.43% |
| CCSCCNC(=O)c1c(C)noc1-c1ccc(C(C)(C)C)cc1 | -4.4% | 3.26% | 1.17% | -9.82% | 12.7% |
| COc1cccc(C2c3cccn3-c3sc4c(c3CN2C(=O)NCc2ccccc2)CCCC4)c1 (stereo not given) | 1.92% | 0.118% | 2.16% | -1.69% | 4.14% |
| O=C(Cn1ccc2cc(S(=O)(=O)N3CCCC3)ccc21)NCc1ccccc1 | 0.897% | 1.66% | 0.123% | -5.09% | -2.82% |
| CCOC(=O)C(CCc1ccccc1)NC(C)C(=O)N1C(=O)N(C)CC1C(=O)O (stereo not given) | 1.2% | – | 9.15% | – | – |
| CC1CCCCC1NC(=O)C1(C)Cn2c(cc3sccc32)C(=O)N1Cc1cccc(Cl)c1 (stereo not given) | 0.58% | 4.3% | -0.198% | 0.848% | 0.59% |
| O=C(CSc1nnc2n(Cc3ccc(F)cc3)c(=O)c3ccccc3n12)Nc1cc(F)ccc1F | 0.124% | 1.06% | 6.78% | 3.89% | 0.947% |
| Cn1ncc2cc(-c3cnc(N)c(Cl)c3N3CCC4(CCNC4=O)CC3)ccc21 | -9.35% | 2.42% | -19.2% | -23.6% | 1.29% |

| SMILES | activity change, negative = inhibition [1] | activity change, negative = inhibition [2] | activity change, negative = inhibition [3] | activity change, negative = inhibition [4] | activity change, negative = inhibition [5] |
| --- | --- | --- | --- | --- | --- |
| COc1ccc2cc3n(c2c1)CC(C)(C(=O)NC1CCCC1)N(CCCc1ccccc1)C3=O (stereo not given) | -6.47% | 1.06% | -8.27% | -13.6% | -8.12% |
| CCOC(=O)c1cc2n(n1)CC(C)(C(=O)NCc1ccc(C)cc1)N(c1ccc(OCC)cc1)C2=O (stereo not given) | 4.48% | 0% | 9.32% | -0.465% | 3.57% |
| CCCn1c(=O)c2ccc(C(=O)NC(C)CC)cc2n2c(=O)n(Cc3ccc(F)cc3)nc12 (stereo not given) | 1.37% | 0% | 4.79% | -0.426% | 3.76% |
| CNCCNS(=O)(=O)c1cccc2cnccc12 | -5.93% | 8.22% | 10% | -6.35% | 0.544% |
| O=C(Cn1nc2nc(Nc3ccc(F)cc3)ccn2c1=O)Nc1ccccc1Cl | 3.88% | 0% | 7.24% | 3.37% | 3.73% |
| CC(NC(=O)Cn1ccc2cc(S(=O)(=O)N3CCCCC3)ccc21)c1ccccc1 (stereo not given) | 7.92% | 2.1% | 4% | 5.34% | 4.55% |
| COCC1CN(C(=O)Cn2c(=O)oc3ccccc32)CC12CCNCC2 (stereo not given) | -3.14% | -0.304% | 1.86% | -2.59% | -15.2% |
| CCOC(=O)c1cc2n(n1)CC(C)(C(=O)NCCC(C)C)N(c1ccc(C)c(F)c1)C2=O (stereo not given) | -4.48% | 0.547% | -3.16% | -0.693% | -6.56% |
| C/C=C1\[C@H](O[C@@H]2O[C@H](CO)[C@@H](O)[C@H](O)[C@H]2O)OC=C(C(=O)O)[C@H]1CC(=O)OCCc1ccc(O)cc1 | 6.03% | 5.68% | 2.94% | -6.78% | 1.8% |
| CNC(C)C(=O)NC(C(=O)N1CCCC1C(=O)Nc1cccc2ncccc12)C(C)C (stereo not given) | 3.68% | 5.92% | 11.2% | -5.83% | 4.46% |
| CCCc1cc(C(=O)N2CCc3c(nc(-c4cccnc4)[nH]c3=O)C2)n[nH]1 | -9.34% | -5.28% | -2.01% | -2.44% | -1.34% |
| O=C1NC2(CCN(C(=O)Cc3ccccc3)C2)OCc2ccccc21 (stereo not given) | -12.1% | -8.34% | -4% | -13.3% | -9.98% |
| COC(=O)N[C@H](C(=O)N1CC2(CC2)C[C@H]1c1ncc(-c2ccc3c(c2)C(F)(F)c2cc(-c4ccc5nc([C@@H]6[C@H]7CC[C@H](C7)N6C(=O)[C@@H](NC(=O)OC)C(C)C)[nH]c5c4)ccc2-3)[nH]1)C(C)C | – | 0.176% | – | -28.3% | -8.25% |
| O=C(COc1cccc2c(=O)[nH]ccc12)c1ccccc1 | -4.93% | 1.1% | 0.889% | -8.76% | -6.62% |
| Cc1cc2c(cc3n2CC(C)(C(=O)NC2CCCCCC2)N(Cc2ccc(OC(C)C)cc2)C3=O)o1 (stereo not given) | 2.69% | 0.22% | 5.18% | -3.19% | 1.86% |
| CCNC(=O)[C@H]1O[C@@H](n2cnc3c(N)nc(NCCc4ccc(CCC(=O)O)cc4)nc32)[C@H](O)[C@@H]1O | 2.29% | -0.285% | 5.92% | -10.5% | -1.29% |
| CCn1c(=O)n(CC)c2cc(S(=O)(=O)Nc3ccccc3)ccc21 | 12.6% | 2.23% | 11.3% | -3.08% | 6.99% |
| CC(C)OCCCNC(=O)C1(C)Cn2c(cc3ccccc32)C(=O)N1Cc1ccccc1 (stereo not given) | 8.01% | 4.2% | 9.03% | 0.017% | 2.37% |
